These results are taken from patent US8067379B2, “Sulfur compounds as inhibitors of hepatitis C virus NS3 serine protease” (Schering Corporation, priority 2004, dated 2011).

One experiment concerns the target Recombinant heterodimeric HCV NS3/NS4A protease (strain 1a) (Hepatitis C virus genotype 1a, UniProt P27958). Kind of experiment: Spectrophotometric assay for HCV serine protease inhibitory activity (chromogenic ester substrates). The class given is biochemical. The settings on record: Ki* Range, Table 3A; class symbols.
As for `C=CCNC(=O)C(=O)[C@H](CC1CC1)NC(=O)[C@@H]1[C@@H]2[C@H](CN1C(=O)[C@@H](NC(=O)NC1(CS(=O)(=O)C(C)(C)COC)CCCCC1)C1(C)CCCCC1)C2(C)C` [Compound 811], the Ki was less than 75 nM.

The same experiment, now with this note: Table 3, sulfone compounds, rows without Prep. Ex. number; read-out: Ki* (numeric value, unlabelled structures at end of sulfone table, column without head).
Take `C#CCCNC(=O)C(=O)C(CC1CCC1)NC(=O)[C@@H]1[C@@H]2[C@H](CN1C(=O)[C@@H](NC(=O)NC1(CS(=O)(=O)C(C)(C)CC)CCCCC1)C1(C)CCCCC1)C2(C)C` (stereo partly shown): the Ki was found to be 48 nM.

The experiment is the same for the next values; noted with them: Table 3, sulfone compounds; HCV serine protease; read-out: Ki* range.
For the compound `C#CCCNC(=O)C(=O)C(CCC#C)NC(=O)[C@@H]1[C@@H]2[C@H](CN1C(=O)[C@@H](NC(=O)NC1(CS(C)(=O)=O)CCCCC1)C(C)(C)C)C2(C)C` (stereo partly shown) [Compound 183], the Ki was less than 75 nM.

For the compound `CC(C)(C)S(=O)(=O)CC1(NC(=O)N[C@H](C(=O)N2C[C@H](OCc3ccccc3)C[C@H]2C(=O)NC(CC2CCC2)C(=O)C(N)=O)C2CCCCC2)CCCCC1` (stereo partly shown) [Compound 303], the Ki was 75 to 250 nM. Take `C=CCNC(=O)C(=O)C(CCCC)NC(=O)[C@@H]1[C@@H]2[C@H](CN1C(=O)[C@@H](NC(=O)N[C@H](CS(=O)(=O)c1ccccc1)C(C)C)C(C)(C)C)C2(C)C` (stereo partly shown) [Compound 148]: the Ki was 75 to 250 nM. On the same count and under the same terms, then `CCCNC(=O)C(=O)C(CC1CC1)NC(=O)[C@@H]1[C@@H]2[C@H](CN1C(=O)[C@@H](NC(=O)NC1(CS(C)(=O)=O)CCCCC1)C(C)(C)C)C2(C)C` (stereo partly shown) [Compound 229], with less than 75 nM; and `CC(C)(C)[C@H](NC(=O)NC1(CS(=O)(=O)Cc2ccco2)CCCCC1)C(=O)N1C[C@H]2[C@@H]([C@H]1C(=O)NC(CC1CC1)C(=O)C(N)=O)C2(C)C` (stereo partly shown) [Compound 222], with less than 75 nM. `CC(C)[C@@H](CS(=O)(=O)c1ccccc1)NC(=O)N[C@H](C(=O)N1C[C@H]2[C@@H]([C@H]1C(=O)NC(CC1CCC1)C(=O)C(N)=O)C2(C)C)C1CCCCC1` (stereo partly shown) [Compound 163]: the Ki is less than 75 nM.

The same experiment, now with this note: Table 3A; class symbols; read-out: Ki* Range.
For the compound `CC(C)(C)[C@H](NC(=O)NC1(CS(=O)(=O)C(C)(C)C)CCCCC1)C(=O)N1C[C@H]2[C@@H]([C@H]1C(=O)NC(CCC1CCC1)C(=O)C(=O)NC1CC1)C2(C)C` (stereo partly shown) [Compound 499], the Ki was less than 75 nM.

Turning to `C=CCNC(=O)C(=O)C(CCCC)NC(=O)[C@@H]1CC2(CN1C(=O)[C@@H](NC(=O)NC1(C3CCCS3(=O)=O)CCCCC1)C(C)(C)C)SCCCS2` (stereo partly shown) [Compound 778], the Ki is less than 75 nM. Regarding `CCC[C@H](NC(=O)[C@@H]1[C@H]2OC(C)(C)O[C@H]2CN1C(=O)[C@@H](NC(=O)NC1(CS(=O)(=O)C(C)(C)C)CCCCC1)C(C)(C)C)C(=O)C(=O)NC1CC1` [Compound 696], the Ki is less than 75 nM. Same read-out and setting: then `CCCNC(=O)C(=O)[C@H](CCC)NC(=O)[C@@H]1[C@@H]2[C@H](CN1C(=O)[C@@H](NC(=O)NC1([C@@H]3CCCS3(=O)=O)CCCCC1)C(C)(C)C)C2(Cl)Cl` [Compound 883-eb], with less than 75 nM; and `C#CCCC(NC(=O)[C@@H]1[C@@H]2[C@H](CN1C(=O)[C@@H](NC(=O)NC1(C3CCCS3(=O)=O)CCCCC1)C(C)(C)C)C2(C)C)C(=O)C(=O)NCC=C` (stereo partly shown) [Compound 630], with less than 75 nM; and `C=CCNC(=O)C(=O)[C@H](CCCC)NC(=O)[C@@H]1[C@@H]2[C@H](CN1C(=O)[C@@H](NC(=O)NC1(C3CCCCS3(=O)=O)CCCCC1)C1(C)CCCCC1)C2(C)C` (stereo partly shown) [Compound 756], with less than 75 nM. On the same count and under the same terms, then `C=CCNC(=O)C(=O)C(CCCC(F)F)NC(=O)[C@@H]1[C@@H]2[C@H](CN1C(=O)[C@@H](NC(=O)NC1(CS(=O)(=O)C(C)(C)C)CCCCC1)C(C)(C)C)C2(C)C` (stereo partly shown) [Compound 487], with less than 75 nM. Still for that read-out and setting: the figure for `CC1([C@H](NC(=O)NC2(CS(=O)(=O)C(C)(C)C)CCCCC2)C(=O)N2C[C@H]3[C@@H]([C@H]2C(=O)NC(CC2CCC2)C(=O)C(=O)NC2CC2)C3(C)C)CCCCC1` (stereo partly shown) [Compound 435] is less than 75 nM; for `CCC(C)(C)S(=O)(=O)CC1(NC(=O)N[C@H](C(=O)N2C[C@H]3[C@@H]([C@H]2C(=O)NC(CC2CC2)C(=O)C(=O)NC2CC2)[C@]3(C)CF)C2(C)CCCCC2)CCCCC1` (stereo partly shown) [Compound 485] it is 75 to 250 nM; for `C=CCNC(=O)C(=O)[C@H](CCC)NC(=O)[C@@H]1CC2(CN1C(=O)[C@@H](NC(=O)NC1(C3CCCS3(=O)=O)CCCCC1)C(C)(C)C)SCCCS2` (stereo partly shown) [Compound 845] it is less than 75 nM. With `CCCC[C@H](NC(=O)[C@@H]1[C@@H]2[C@H](CN1C(=O)[C@@H](NC(=O)NC1(CS(=O)(=O)C(C)(C)C)CCCCC1)C(C)(C)C)C2(C)C)C(=O)C(=O)NCC` [Compound 883-ao], the Ki is less than 75 nM.

Consider `CCCNC(=O)C(=O)[C@H](CCC)NC(=O)[C@@H]1[C@@H]2[C@H](CN1C(=O)[C@@H](NC(=O)NC1([C@H]3CCCS3(=O)=O)CCCCC1)C(C)(C)C)C2(Cl)Cl` [Compound 883-ea], for which the Ki is less than 75 nM.

In the case of `CNC(=O)C(=O)C(CCC1CC1)NC(=O)[C@@H]1[C@@H]2[C@H](CN1C(=O)[C@@H](NC(=O)NC1(CS(=O)(=O)C(C)(C)C)CCCCC1)C1CCCCC1)C2(C)C` (stereo partly shown) [Compound 554], the Ki was less than 75 nM. In the case of `C=C(F)CNC(=O)C(=O)[C@@H](CCCC)NC(=O)[C@@H]1[C@@H]2[C@H](CN1C(=O)[C@@H](NC(=O)NC1([C@@H]3CCCS3(=O)=O)CCCCC1)C(C)(C)C)C2(C)C` [Compound 883-bj], the inhibition constant Ki lay in the range of 75 to 250 nM. Turning to `C=CCNC(=O)C(=O)[C@H](CC1CC1)NC(=O)[C@@H]1[C@@H]2[C@H](CN1C(=O)[C@@H](NC(=O)NC1(CS(=O)(=O)C3(CO)CCCCC3)CCCCC1)C1(C)CCCCC1)C2(C)C` [Compound 883-ax], the Ki was less than 75 nM. The same measure, in the same setting: the figure for `C=CCNC(=O)C(=O)C(CC1CC1)NC(=O)[C@@H]1[C@@H]2[C@H](CN1C(=O)[C@@H](NC(=O)NC1(CS(=O)(=O)C(C)(C)C)CCCCC1)C1(C)CCCCC1)[C@@]2(C)COCc1ccccc1` (stereo partly shown) [Compound 423] is less than 75 nM. Still for that read-out and setting: then `CCCC(NC(=O)[C@@H]1[C@@H]2[C@H](CN1C(=O)[C@@H](NC(=O)NC1(CS(=O)(=O)C3CCCCC3)CCCCC1)C1(C)CCCCC1)C2(C)C)C(=O)C(=O)NC1CC1` (stereo partly shown) [Compound 551], with less than 75 nM; and `CCCC[C@H](NC(=O)[C@@H]1[C@@H]2[C@H](CN1C(=O)[C@@H](NC(=O)NC1([C@@H]3CCCS3(=O)=O)CCCCC1)C(C)(C)C)C2(Cl)Cl)C(=O)C(=O)NC1CC1` [Compound 820], with less than 75 nM.

Take `C=CCNC(=O)C(=O)C(CCC)NC(=O)[C@@H]1[C@@H]2[C@H](CN1C(=O)[C@@H](NC(=O)NC1(CS(=O)(=O)C(C)(C)C)CCCCC1)C(C)(C)C)C2(Cl)Cl` (stereo partly shown) [Compound 589]: the Ki is less than 75 nM. Same read-out and setting: the figure for `CCCC[C@H](NC(=O)[C@@H]1[C@@H]2[C@H](CN1C(=O)[C@@H](NC(=O)NC1(CS(=O)(=O)C(C)(C)CO)CCCCC1)C(C)(C)C)C2(C)C)C(=O)C(=O)NC1CC1` [Compound 808] is less than 75 nM. On the same count and under the same terms, then `C=CCNC(=O)C(=O)[C@H](CCCC)NC(=O)[C@@H]1[C@@H]2[C@H](CN1C(=O)[C@@H](NC(=O)NC1(CS(=O)(=O)C(C)(C)CO)CCCCC1)C1(C)CCCCC1)C2(C)C` [Compound 776], with less than 75 nM.

The same experiment, now with this note: Table 4; read-out: Ki* range.
In the case of `C=CCNC(=O)C(=O)C(CC1CC1)NC(=O)[C@@H]1[C@@H]2[C@H](CN1C(=O)[C@@H](NC(=O)N[C@H](CS(=O)(=O)N(C)C(C)(C)C)C(C)C)C(C)(C)C)C2(C)C` (stereo partly shown) [Compound 1004], the Ki is less than 75 nM.

The experiment is the same for the next values; noted with them: Table 4A; read-out: Ki* Range.
With `C=CCNC(=O)C(=O)C(CC1CC1)NC(=O)[C@@H]1[C@H]2CC(C)(C)O[C@H]2CN1C(=O)[C@@H](NC(=O)N[C@H](CS(=O)(=O)N(C)C(C)(C)C)C(C)(C)C)C1CCCCC1` (stereo partly shown) [Compound 1103], the Ki fell in the range of 75 to 250 nM.

What is called Ki is a dissociation constant, usually derived from enzyme kinetics or from competition with a known ligand.
